Measurements as given in PubChem BioAssay AID1963576 (National Center for Advancing Translational Sciences (NCATS), 2024).
About 60 (0.1%) of roughly 46,000 compounds were called active. Another 3% or so got no clear call; they are omitted. Calls come from the whole dose curve; as a rule, active = well fitted inhibition curve with a large enough effect; inconclusive = small, poorly fitted or top-dose-only effect; inactive = no such curve, though single readings can be large or run the other way. This is one part of the list.

assay: Primary qHTS assay for Inhibitors of ovarian cancer metastasis using an organotypic tumor microenvironment (TME) model.; note: nearly all actives have a fitted effect of over 65% in size;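 for activity change, negative = inhibition: plate controls were DMSO wells for no effect and tomatine positive control wells for full effect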; conditions: SKOV3ip1-GFP adhesion/invasion on 3D omental model, fluorescence; series mostly up to 45.8 µM; activity change, negative = inhibition: at the top concentration
In short: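 A 3D layer of primary human omental fibroblasts, mesothelial cells, fibronectin and collagen I, grown 48 hr, received SKOV3ip1-GFP cells in serum-free medium plus compounds at 0.36-46 umol/L. After 2 hr RT and 16 hr 37 C, fixed adherent GFP cells were counted; normalized to DMSO and tomatine.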

Activity change, negative = inhibition, inactive:
CCS(=O)(=O)N1CCc2cc(C(=O)N3CCN(c4ccc(OC)cc4)CC3)ccc21 4.5%
CCc1cccc(C)c1NC(=O)C(CC)n1nc(C)c2c(C)n(-c3ccccc3)nc2c1=O (configuration not stated) -6.41%
COc1ccc(S(=O)(=O)NCc2cccn2Cc2cccc(C)c2)cc1Cl 0.842%
CNC(=O)c1ccc2nc(CCc3ccccc3)oc2c1 26.8%
CCc1ccc(C2CC(=O)c3c([nH]c(C(=O)OC4CCC(C)CC4)c3C)C2)cc1 (configuration not stated) 2.68%
O=C(Nc1noc2ccccc12)c1c(F)cccc1F -6.92%
Cc1ccc(CNC(=O)Cn2c(=O)n(-c3ccc(C)c(F)c3)c(=O)c3sc4ccccc4c32)cc1 -9.54%
Cc1ccc(S(=O)(=O)N(CC(=O)N2CCc3ccccc3C2)c2ccc(C)c(C)c2)cc1 1.56%
CCOc1ccc(NC(=O)CCS(=O)(=O)c2ccc(Br)s2)cc1 -4%
CCN(CC)CCCNC(=O)c1nn(-c2ccc(OC)c(Cl)c2)c(=O)c2c1c1ccccc1n2C -4.37%
COC(=O)c1sccc1S(=O)(=O)N(CC(=O)NCc1ccccc1)c1ccc(C)c(C)c1 -0.202%
Cn1nnnc1SCCNCc1ccc(OCc2ccccc2)cc1 -1.89%
COc1ccc(NC(=O)CSc2nnc3scc(-c4ccc(Cl)cc4)n23)cc1 0.397%
CCCC(=O)Nc1cc(C(=O)NCc2ccc(OC)cc2)ccc1S(=O)(=O)c1ccc(Cl)cc1 0.254%
Cc1nn(CC(=O)NCc2ccccc2Cl)c(=O)c2cccn12 0.649%
CCOc1ccc(-c2nc3c(C#N)c[nH]n3c2NC2CCCCC2)cc1 0.513%
CCc1ccc(CNC(=O)C2CCCN(c3nn4cc(-c5ccc(F)cc5)nc4s3)C2)cc1 (configuration not stated) -10.1%
Cc1cccc(-c2nc(CCNC(=O)c3ccccc3Br)cs2)c1 13.6%
COc1ccc(NC(=O)C2CCCN(S(=O)(=O)c3c(C)n[nH]c3C)C2)cc1OC (configuration not stated) 0.395%
Cc1ccc(Cc2c(C)nn(-c3nc(C)c(C(=O)N4CCCCC4C)s3)c2C)cc1 (configuration not stated) 13.7%
COc1ccc(-c2noc(CSc3nnc(-c4ccccc4)n3-c3ccc(F)cc3)n2)c(OC)c1 2.75%
COc1ccc(-c2cc(OC(=O)c3ccc(F)cc3)c3c(C)oc(C)c3c(=O)c2)cc1OC -6.7%
CCC(=O)N1CCc2cc(S(=O)(=O)NC(C(=O)NCCc3ccc(Cl)cc3)C(C)C)ccc21 (configuration not stated) 3.25%
Cc1cccc(NC(=O)CN2c3ccccc3S(=O)(=O)c3ccccc32)c1C -2.96%
COc1ccc(NC(=O)C2CCCN(S(=O)(=O)c3ccc(Cl)cc3)C2)cc1 (configuration not stated) 0.829%
Cc1ccc(Cl)cc1NC(=O)C(NS(=O)(=O)c1cccc2nsnc12)c1ccccc1 (configuration not stated) -11.8%
CC(=O)c1cc(-c2ccc(F)cc2)n(CC(=O)NC(C)c2ccccc2)c1C (configuration not stated) 7.3%
Cc1ccccc1NC(=O)Nc1ccc2nc(N3CCN(C)CC3)cc(C)c2c1 0.335%
Cc1cccn2c(=O)c(/C=C(\C#N)c3nc4ccccc4s3)c(Oc3ccc(Br)cc3)nc12 -0.444%
O=C(NCc1ccccc1F)C1CCN(Cc2cc3ccccc3n2Cc2cccc(Cl)c2)CC1 8.72%
COc1cc(C2c3c(oc4ccccc4c3=O)C(=O)N2c2nc(C)c(C)s2)ccc1O (configuration not stated) 1.73%
Cc1nc2nc(NC(=O)c3ccc(F)cc3)[nH]n2c(=O)c1Cc1ccccc1 2.6%
CC(=O)c1ccc(NC(=O)C2=CC(c3cccs3)=NS(=O)(=O)N2C)cc1 13.8%
COc1ccc(CNCc2ccc3c(c2)n(C)c(=O)n3C)cc1 4.09%
COc1cccc(C(=O)NC(=O)Nc2ccc(-n3nc(C(F)(F)F)cc3C(F)(F)F)cc2)c1 1.29%
Cc1ccc2nc(-c3ccc(NC(=O)C(F)(F)F)cc3)sc2c1 8%
Cc1nc2c(c(C)nn2-c2ccccc2)c(C)c1CCC(=O)Nc1ccc(F)cc1 0.419%
COc1cc(Nc2nc(SCc3cccc(Cl)c3)nc3ccccc23)cc(OC)c1 -0.15%
Nc1nc(Cl)nc2c1ncn2[C@H]1C[C@H](O)[C@@H](CO)O1 -18.5%
CCC=CC[C@H]1C(=O)CC[C@@H]1CC(=O)OC 0.598%
Cc1ccc2c(CC(=O)Nc3c(C(=O)c4ccc(F)cc4)oc4ccccc34)coc2c1 2.93%
O=C(CCSCc1ccc(Cl)cc1)N1CCN(c2ccccc2F)CC1 -3.62%
COc1ccc(CCNC(=O)CS(=O)Cc2nc(-c3ccc(C)cc3)oc2C)cc1OC (configuration not stated) -4.76%
COc1ccc(N2CCN(C(=O)c3nn(C)c4c3CS(=O)(=O)c3ccccc3-4)CC2)cc1 -6.61%
COc1ccc(-c2nc3c(c(SCc4cc(C)ccc4C)n2)Cc2c(CO)cnc(C)c2O3)cc1 3.46%
CC(NC(=O)C1CCN(C(=O)N2CCOc3ccc(Cl)cc32)CC1)c1ccccc1 (configuration not stated) 9.57%
CCC(=O)OCc1cnc(C)c2oc(=O)c(C(=O)Nc3ccc(CC)cc3)cc12 7.81%
CCCN(CCC)CCNC(=O)Cn1ncc2c([nH]c3ccc(C)cc32)c1=O -0.319%
CCOc1ccc2oc(=O)cc(CN3CCN(C(=O)c4cccc(F)c4)CC3)c2c1 19.9%
COc1ccccc1Nc1nn2c(=O)c3ccc(C(=O)Nc4ccc(F)cc4)cc3nc2s1 6.93%

outcome, inactive:
Cc1cccc(NC(=O)CN2C(=O)COc3ccc(S(=O)(=O)N4CCC(C)CC4)cc32)c1C
CCOC(=O)c1c(C)c(-c2ccccc2)n(CC(=O)Nc2cccc(F)c2)c1C
CCOC(=O)C1CCN(C(=O)C2CCN(c3nnc(C)c4c(C)n(-c5ccccc5)nc34)CC2)CC1
O=C(Nc1cc(F)ccc1F)c1ccc2c(c1)nnn2C1CCCC1
CCOC(=O)c1ccccc1NC(=O)N1CCCN(S(=O)(=O)c2ccc3c(ccn3CC)c2)CC1
CCc1nn(CC(=O)NCc2ccc(OC)cc2OC)c(=O)c2cc3c(OC)cccc3n12
Cc1ccc(C)c(N2CCN(c3nccn4nc(-c5ccc(Br)cc5)cc34)CC2)c1
Cn1c(=O)oc2cc(S(=O)(=O)CCC(=O)NCCc3ccccc3)ccc21
O=C(COCc1cc(-c2cccs2)on1)NCc1ccccc1Cl
Cc1cc(C)n(-c2nnc(Nc3ccc(C(C)C)cc3)c3ccccc23)n1
Fc1ccc(Nc2c3c(nc4nncn24)CCC3)cc1
NC(=O)c1cc(S(=O)(=O)NCc2ccc(Br)cc2)cs1
